Results as given in PubChem BioAssay AID1347165 (National Center for Advancing Translational Sciences (NCATS), 2019).
Values joined by “and” are separate entries in the source; they are usually repeats but may differ in a detail not shown here. Equal entries are not always repeated. Hit rate of the full screen: of about 220,000 compounds, about 5,700 (2.6%) were called active. This list was built around the results that the source calls inconclusive (neither active nor inactive); the mix of calls is not that of the screen. Calls follow the shape of the dose curve; as a rule, active = well fitted inhibition curve with a large enough effect; inconclusive = small, poorly fitted or top-dose-only effect; inactive = no such curve, though single readings can be large or run the other way. Where the call is inconclusive, the potency comes from a doubtful curve fit.
Also: nearly all actives have a fitted effect of over 70% in size.
For activity change, negative = inhibition in this document: 0% is about no effect.
Potency is read from the fitted curve at half-maximal effect; tags tell the direction and shape of the fitted curve.

What follows are molecules tested against Lysine-specific demethylase 5B (Homo sapiens) (UniProt Q9UGL1) (assay: Primary screen for KDM5B Histone Demethylases FDH-coupled qHTS). Settings: FDH-coupled NADH fluorescence (FDH is formaldehyde dehydrogenase); activity change, negative = inhibition: at 57.7 µM (top of the series) unless noted.
UniProt Q9UGL1, sequence (Q9UGL1 whole entry, looked up): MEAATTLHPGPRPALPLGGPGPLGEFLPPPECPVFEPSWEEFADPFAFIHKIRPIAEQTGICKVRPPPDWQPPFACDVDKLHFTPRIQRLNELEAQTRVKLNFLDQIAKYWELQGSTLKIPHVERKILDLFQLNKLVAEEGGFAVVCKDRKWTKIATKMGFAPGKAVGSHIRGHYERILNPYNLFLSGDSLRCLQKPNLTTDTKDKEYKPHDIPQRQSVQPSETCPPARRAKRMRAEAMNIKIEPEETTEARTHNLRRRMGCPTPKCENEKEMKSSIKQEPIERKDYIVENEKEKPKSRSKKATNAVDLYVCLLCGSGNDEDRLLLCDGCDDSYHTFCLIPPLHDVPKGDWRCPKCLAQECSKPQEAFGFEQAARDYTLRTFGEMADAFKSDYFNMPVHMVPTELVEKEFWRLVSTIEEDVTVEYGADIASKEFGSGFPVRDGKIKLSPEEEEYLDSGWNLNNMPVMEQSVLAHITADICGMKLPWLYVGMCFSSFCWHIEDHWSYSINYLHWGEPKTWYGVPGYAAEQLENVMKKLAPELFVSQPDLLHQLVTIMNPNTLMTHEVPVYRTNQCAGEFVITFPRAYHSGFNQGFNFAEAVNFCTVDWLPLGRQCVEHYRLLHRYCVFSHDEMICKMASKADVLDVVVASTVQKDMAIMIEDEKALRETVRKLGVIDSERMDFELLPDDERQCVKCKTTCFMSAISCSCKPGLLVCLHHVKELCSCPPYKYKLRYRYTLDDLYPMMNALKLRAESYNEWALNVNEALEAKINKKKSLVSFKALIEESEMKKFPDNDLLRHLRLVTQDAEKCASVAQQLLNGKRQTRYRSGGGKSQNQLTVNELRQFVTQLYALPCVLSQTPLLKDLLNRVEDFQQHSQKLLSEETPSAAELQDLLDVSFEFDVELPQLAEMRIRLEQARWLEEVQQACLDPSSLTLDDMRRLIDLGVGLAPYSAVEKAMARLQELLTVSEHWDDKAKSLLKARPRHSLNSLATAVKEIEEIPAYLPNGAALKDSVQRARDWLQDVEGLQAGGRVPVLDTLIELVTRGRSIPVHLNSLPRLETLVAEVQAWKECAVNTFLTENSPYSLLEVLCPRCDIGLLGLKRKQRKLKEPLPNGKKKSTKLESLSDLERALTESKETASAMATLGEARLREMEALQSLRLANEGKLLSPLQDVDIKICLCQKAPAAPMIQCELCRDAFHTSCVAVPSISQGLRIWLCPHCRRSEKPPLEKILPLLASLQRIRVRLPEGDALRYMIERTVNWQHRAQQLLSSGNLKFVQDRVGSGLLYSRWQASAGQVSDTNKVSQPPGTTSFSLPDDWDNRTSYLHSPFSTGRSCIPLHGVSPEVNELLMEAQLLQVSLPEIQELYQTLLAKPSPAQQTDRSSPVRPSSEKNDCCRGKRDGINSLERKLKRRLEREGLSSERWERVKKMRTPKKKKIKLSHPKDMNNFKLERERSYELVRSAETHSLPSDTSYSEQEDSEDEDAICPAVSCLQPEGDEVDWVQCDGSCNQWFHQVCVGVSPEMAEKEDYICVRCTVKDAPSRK
Summary of the method: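 Coupled FDH/NAD⁺ fluorescence readout. KDM5BΔAP 200 nM final; compound titration, 10 min RT preincubation; substrate mix 12.5 µM H3K4me3, 25 µM 2-OG, 50 µM Fe(II), 100 µM ascorbate, 0.25 mM NAD⁺, 0.25 U/mL FDH; ΔRFU over 30 min.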
With `CCn1nc(C(=O)Nc2cc(Cl)ccc2OC)c2ccccc2c1=O` the “activity change, negative = inhibition” value was inactive: 8.03%.
With `Cc1ccc(-c2nnc3ccc(NCCc4ccccn4)nn23)nc1` the Potency was inconclusive: 35.5 µM [inhibitor, partial curve].
`COCC(=O)NC1CCN(c2ccccc2S(=O)(=O)C(F)(F)F)CC1` was tested, and the “activity change, negative = inhibition” value was inactive: 17.6%.
With `O=C(/C=C/c1cn(CC(O)CN2CCCCCC2)c2ccccc12)c1ccccc1` (stereo unspecified) the Potency was inconclusive: 28.2 µM [inhibitor, partial curve, poor fit].
With `CCCOc1ccc(NC(=O)c2cccc3ccccc23)c2cccnc12` the “activity change, negative = inhibition” value was inactive: -11%.
For `COC(=O)C1CN(C(=O)C(C)Oc2ccc(C)c(C)c2)c2ccccc2O1` (stereo unspecified), the “activity change, negative = inhibition” value was inactive: 33.4%.
`COc1ccc(-n2ccnc(NCCc3ccc(S(N)(=O)=O)cc3)c2=O)cc1` was tested, and the Potency was inconclusive: 28.2 µM [inhibitor, single point].
In the case of `CC(C)Cn1cc2c3c(cccc31)CNCC2`, the Potency is reported as inconclusive: 15.8 µM [inhibitor, single point].
`COc1cc(/C=C/c2nc(C#N)c(NC3CCCCC3)o2)cc(OC)c1OC` was tested, and the Potency was inconclusive: 35.5 µM [inhibitor, partial curve, poor fit].
For `C#CCN(C)C(=O)C[C@@H]1c2nc(NC(=O)c3ccc(OC)cc3)sc2C[C@@H]2[C@](C)(CO)[C@H](O)CC[C@]21C`, the Potency was inconclusive: 22.4 µM [inhibitor, single point].
With `COc1ccccc1CNC(=O)Cc1c(C)c2ccc(OC)c(OC)c2oc1=O` the Potency was inconclusive: 1 µM [inhibitor, full curve, poor fit].
With `Cc1c(C)n(CCCN2CCOCC2)c2ncn3nc(-c4ccccn4)nc3c12` the “activity change, negative = inhibition” value was inactive: -9.36%.
With `CN(C)c1ccc(-c2nnnn2[C@H]2CO[C@H]3[C@@H]2OC[C@@H]3NC(=O)CCC(=O)O)cc1` the “activity change, negative = inhibition” value was inactive: -11.8% [at 86.2 µM].
`COc1ncccc1-c1ccnc(-c2nnc(C)n2Cc2ccccc2)c1` was tested, and the Potency was active: 28.2 µM.
In the case of `Cc1cc(Br)ccc1NC(=O)c1cc2c(s1)-c1ccccc1SC2`, the Potency is reported as inconclusive: 35.5 µM [inhibitor, partial curve, poor fit].
In the case of `CCCc1ccc(C(=O)COC(=O)CNC(=O)c2ccc(C)cc2)cc1`, the “activity change, negative = inhibition” value is reported as inactive: 16.4%.
With `O=C(CCCn1c(=O)c2cccn2c2cccnc21)NCCc1ccc(Cl)cc1` the Potency was inconclusive: 17.8 µM [inhibitor, partial curve, poor fit].
`Cc1ccc(C(=O)N(CC(C)C)CC2CN(C(=O)c3ccc(Cl)c(Cl)c3)CCO2)cc1` (stereo unspecified) was tested, and the “activity change, negative = inhibition” value was inactive: -5.78%.
`CCOC(=O)c1ccccc1NC(=O)CN(c1ccccc1OC)S(=O)(=O)c1ccc(C)cc1` was tested, and the Potency was inconclusive: 25.1 µM [inhibitor, partial curve, poor fit].
With `O=C(NCCc1csc(-c2cccnc2)n1)c1cccc(C(F)(F)F)c1` the Potency was inconclusive: 3.55 µM [inhibitor, partial curve, poor fit].
In the case of `CCOc1ccc(NC(=O)Cn2c(C)ccc(C#N)c2=O)cc1`, the Potency is reported as inconclusive: 1.12 µM [inhibitor, partial curve, poor fit].
`CC(Nc1oc(Cc2cccc3ccccc23)nc1C#N)c1ccccc1` (stereo unspecified) was tested, and the “activity change, negative = inhibition” value was inactive: -20.7%.
In the case of `CCc1cccc2c(C3=CCN(C(=O)C(C)(C)C)CC3)c[nH]c12`, the Potency is reported as inconclusive: 25.1 µM [inhibitor, partial curve, poor fit].
`Cc1cc(OCCN2CCOCC2)c(C)c2c1CC[C@@H]([C@H](C)C(=O)NCc1cccnc1)C2` was tested, and the Potency was inconclusive: 39.8 µM [inhibitor, partial curve, poor fit].
In the case of `COc1ccc(-c2coc3c(C)c(OCCN4CCC(C)CC4)ccc3c2=O)cc1`, the “activity change, negative = inhibition” value is reported as inactive: -25.5%.
In the case of `O=C(CNc1ccc(Br)cc1)Nc1ccc(C(F)(F)F)cc1`, the Potency is reported as inconclusive: 22.4 µM [inhibitor, single point].
In the case of `c1cncc(-c2cc(-c3cccc(N4CCOCC4)c3)cn3cncc23)c1`, the Potency is reported as inconclusive: 25.1 µM [inhibitor, partial curve, poor fit].
`CCCS(=O)(=O)N1CC(F)(F)C[C@H]1c1nnc(C)o1` was tested, and the Potency was inconclusive: 2.24 µM [inhibitor, full curve, poor fit].
For `COc1cc(NS(=O)(=O)c2ccc(C)cc2)cc2sc(NC(=O)c3ccccc3)nc12`, the Potency was inconclusive: 25.1 µM [inhibitor, partial curve, poor fit].
In the case of `Cc1cccc2cc(C(=O)N3CC[C@H](CO)[C@H](O)C3)oc12`, the “activity change, negative = inhibition” value is reported as inactive: -10.4%.
`CN1CCC2(C1)CN(Cc1ccccc1)c1ccc(C(=O)NCc3cccs3)cc12` (stereo unspecified) was tested, and the Potency was active: 35.5 µM.
With `Cc1ccc(C)c(NC(=O)CSc2cn(CC(=O)N3CCCC3)c3ccccc23)c1` the activity change, negative = inhibition was inconclusive: -33.8% [inhibitor].
`Cc1noc(C)c1-c1cnc2[nH]cc(CC(N)=O)c2c1` was tested, and the Potency was active: 31.6 µM.
`c1cncc(CN2CCn3c(nnc3C3CCCNC3)C2)c1` (stereo unspecified) was tested, and the Potency was inconclusive: 50.1 µM [inhibitor, partial curve, poor fit] and inconclusive: 39.8 µM [inhibitor, partial curve, poor fit] and inconclusive: 35.5 µM [inhibitor, single point].
For `COc1ccc(NC(=O)c2ccc3c(c2)N(C)C2CCCCCN2C3=O)cc1F` (stereo unspecified), the Potency was inconclusive: 22.4 µM [inhibitor, partial curve, poor fit].
For `O/N=C1\CCOc2ccccc21`, the “activity change, negative = inhibition” value was inactive: -9.6%.
`CC(=O)NC[C@H]1O[C@@H](CC(=O)N(C)Cc2ccccc2)[C@H](O)[C@@H]1O` was tested, and the “activity change, negative = inhibition” value was inactive: -0.0873% [at 86.2 µM].
`CN(C)c1ccc(-c2ccnc(N[C@H]3CO[C@H]4[C@@H]3OC[C@H]4OC(=O)Nc3cccc(C(F)(F)F)c3)n2)cc1` was tested, and the Potency was inconclusive: 14.1 µM [inhibitor, partial curve, poor fit].
For `CC#CCn1cc2c3c(cccc31)[C@H](CC(C)C)N[C@H](C(=O)N1CCN(C(C)=O)CC1)C2`, the Potency was inconclusive: 22.4 µM [inhibitor, partial curve, poor fit].
With `COc1ccc(C(=O)Nc2cc(C(F)(F)F)ccc2N2CCN(c3ccccc3)CC2)cc1OC` the Potency was inconclusive: 15.8 µM [inhibitor, partial curve, poor fit].
`Cc1cccc(Cn2c(CN3CCC(C(=O)NCCc4ccccc4)CC3)cc3ccccc32)c1` was tested, and the Potency was inconclusive: 25.1 µM [inhibitor, single point].
